Screen size: about 310,000 compounds; about 14,000 (4.5%) showed an effect of 50% or more. Effects have a minus sign here. The list shows a part of the results.
The compounds below were run against human ether-à-go-go-related gene (hERG) potassium channel (human, UniProt Q12809) (assay: primary screen, population patch clamp on CHO cells stably expressing hERG).
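Further: peak tail current of the secondary pulse compared with the same well before compound.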

Sequence of human ether-à-go-go-related gene (hERG) potassium channel (Q12809 whole entry, looked up): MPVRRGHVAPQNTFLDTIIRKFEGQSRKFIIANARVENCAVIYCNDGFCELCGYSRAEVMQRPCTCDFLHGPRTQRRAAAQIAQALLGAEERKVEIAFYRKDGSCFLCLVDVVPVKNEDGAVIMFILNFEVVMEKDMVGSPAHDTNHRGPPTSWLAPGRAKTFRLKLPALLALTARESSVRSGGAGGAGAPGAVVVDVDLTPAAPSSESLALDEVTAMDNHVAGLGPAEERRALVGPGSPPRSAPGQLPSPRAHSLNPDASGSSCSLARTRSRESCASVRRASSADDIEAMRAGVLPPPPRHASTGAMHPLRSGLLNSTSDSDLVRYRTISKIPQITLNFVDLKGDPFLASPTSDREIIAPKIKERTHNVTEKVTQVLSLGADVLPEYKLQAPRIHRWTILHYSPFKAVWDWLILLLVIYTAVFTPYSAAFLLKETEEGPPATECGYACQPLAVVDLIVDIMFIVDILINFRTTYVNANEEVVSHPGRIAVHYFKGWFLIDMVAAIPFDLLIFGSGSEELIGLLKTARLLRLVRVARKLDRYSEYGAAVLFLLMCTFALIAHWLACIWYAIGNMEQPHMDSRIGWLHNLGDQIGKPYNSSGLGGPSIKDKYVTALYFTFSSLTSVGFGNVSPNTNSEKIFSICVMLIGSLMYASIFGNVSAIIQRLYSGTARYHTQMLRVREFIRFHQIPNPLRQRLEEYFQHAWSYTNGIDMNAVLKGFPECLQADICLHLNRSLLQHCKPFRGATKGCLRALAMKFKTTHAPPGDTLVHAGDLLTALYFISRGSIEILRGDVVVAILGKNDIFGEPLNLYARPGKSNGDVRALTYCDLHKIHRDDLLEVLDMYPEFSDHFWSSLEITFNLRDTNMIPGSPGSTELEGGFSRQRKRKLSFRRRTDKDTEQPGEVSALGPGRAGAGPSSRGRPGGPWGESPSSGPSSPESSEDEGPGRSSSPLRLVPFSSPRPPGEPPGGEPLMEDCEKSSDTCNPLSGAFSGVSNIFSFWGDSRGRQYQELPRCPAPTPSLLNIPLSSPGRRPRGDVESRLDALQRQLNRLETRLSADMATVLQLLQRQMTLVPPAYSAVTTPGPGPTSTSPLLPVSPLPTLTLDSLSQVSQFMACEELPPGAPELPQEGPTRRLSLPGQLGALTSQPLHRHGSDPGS

Structure (SMILES) | hERG current change (%, negative = inhibition) at 10uM
CCOC(=O)c1nnc(-c2ccccc2)nc1Sc1c(Cl)cccc1Cl | -2.75%
CC1=C(C(=O)Nc2ccc(C)cc2C)C(c2cccc([N+](=O)[O-])c2)n2nc(C(=O)OC(C)C)nc2N1 (stereo not drawn) | 3.39%
COc1cc(SC)ccc1C(=O)Nc1c(Cl)cncc1Cl | -13.9%
COC(=O)Nc1ccccc1C(=O)N1CCN(c2ccc(C)cc2)CC1 | -0.615%
O=C(O)c1cc2sccc2s1 | 4.87%
O=C(COc1ccccc1[N+](=O)[O-])N/N=C/c1cccs1 | 3.25%
O=C(OCn1nnc2ccccc2c1=O)c1ccc2ncsc2c1 | -1.12%
COc1ccc(-c2csc(-n3ncc(-c4cccs4)c3N)n2)cc1 | 22.5%
COc1ccc(N(CC(=O)NC2CCCC2)C(=O)Cn2nnc(-c3ccc(OC)c(OC)c3)n2)cc1 | 2.66%
COc1cccc(C(=O)O/N=C(\N)c2ccc([N+](=O)[O-])cc2)c1 | 17.6%
Nc1cc2c3c(cccc3c1)C(=O)N(CCN1CCCC1)C2=O | -6.87%
Cc1ccc(NC(=O)COC(=O)CN2CSCC2=O)cc1C | -2.4%
Cc1ccc(C(=O)N[C@H](C(=O)OCC(=O)Nc2cccc(S(N)(=O)=O)c2)C(C)C)cc1 | -41.7%
Clc1ccsc1-c1ccnc(-n2cccc2)n1 | 11.1%
FC(F)(F)c1ccc(C2[C@H]3CN(Cc4cccnc4)[C@H](c4ccccc4)C34CC2(c2ccccc2)C4)cc1 (stereo partly drawn) | -2.57%
Cc1ccc(C(=O)NCCn2c(N)c(C#N)c3nc4ccccc4nc32)cc1 | 5.37%
CCOc1c(Br)cc(CNc2ccc3c(c2)OCCO3)cc1OC | 5.89%
CC(C)c1ccc(CN2CCN(C(=O)CSc3nnnn3C3CC3)CC2)cc1 | -28.1%
COc1ccc(N2CCN(C(=O)CN=C3NS(=O)(=O)C(c4ccc(C)cc4)=C3C)CC2)cc1 | -5.05%
Cc1cccc(C)c1-n1c(C)cc(/C=N\Nc2ccc([N+](=O)[O-])cn2)c1C | 15.2%
CCOc1ccccc1-c1nc(SCC(=O)O)n[nH]1 | -6.75%
O=C(O)C1C2C=CC(C3CC23)C1C(=O)N1CCc2ccccc21 (stereo not drawn) | 3.86%

Structure (SMILES) | hERG current change (%, negative = inhibition) at 10uM
CNC(=O)C(=O)N/N=C/c1cccnc1 | -2.6%
CCCCN(C(=O)CSCc1c(C)noc1C)c1c(N)n(CCCC)c(=O)[nH]c1=O | 13.2%
N#Cc1ccccc1NC(=O)CN1C(=O)NC2(CCCC2)C1=O | 14.7%
COc1cc(C(=O)NCCc2cn3ccc(C)cc3n2)cc(OC)c1OC | -27%
Cc1cc(O)c(/C=N/Nc2ccc(Cl)cc2)c(=O)o1 | 13.6%
CCCCc1nc(SCC(=O)Nc2ccc(S(N)(=O)=O)cc2)n[nH]1 | -3.6%
CCOC(=O)N1CCN(C(=O)C2CCN(S(=O)(=O)c3cc(OC)ccc3OC)CC2)CC1 | 21.5%
C=CCNC(=S)N(Cc1ccccc1)Cc1ccccc1 | -6.16%
CCN(CC)CCCN=Cc1c(O)n(-c2ccccc2F)c(=O)[nH]c1=O | 18.5%
O=C(O)CCC(=O)Nc1ccccc1C(=O)NC1CCCCC1 | 11%
O=C(CNC(=O)c1cccc(Br)c1)N/N=C/c1cn[nH]c1-c1ccccc1 | -30.9%
Cc1ccc(C(=O)c2c(NC(=O)c3ccccc3C)sc(C)c2C)cc1 | -3.58%
Cc1ccc(N2C(=O)C(NC(=O)c3ccccc3F)(C(F)(F)F)C3=C2CC(C)(C)CC3=O)cc1 (stereo not drawn) | 6.43%
O=C(Nc1ccccc1N1CCN(c2ccccc2)CC1)C1CCCCC1 | -15.9%
COc1cc(/C=N/OCC(=O)Nc2ccc(OC(F)F)cc2)ccc1OCc1ccccc1 | -24.9%
Cl.OC(CNCc1ccccc1)COCc1ccc(Cl)cc1 (stereo not drawn) | -50.3%
COc1ccc(OC)c(C2C=C(C34CC5CC(CC(C5)C3)C4)NC(=S)N2)c1 (stereo not drawn) | 3.77%
CS(=O)(=O)Nc1ccccc1NS(C)(=O)=O | 16.7%
COC(=O)c1cc(C(=O)OC)n(Cc2ccc(Cl)cc2Cl)n1 | -12.3%
Cc1cc(OCCN2CCCC2)ccc1[N+](=O)[O-].O=C(O)C(=O)O | -9.82%
CCc1nnc(NC(=O)c2cccc(S(=O)(=O)N(C)c3ccc(OC)cc3)c2)s1 | 33.6%
COc1cccc(CN2CC(C(=O)NCCCc3ccc(C)cc3)CCC2=O)c1 (stereo not drawn) | -28.4%

Structure (SMILES) | hERG current change (%, negative = inhibition) at 10uM
COc1ccc(CCNC(=O)c2nn(C)cc2Cl)cc1 | -3.6%
CCCCn1c(=O)[nH]c(=O)c2c(C(=O)OCC)cc(-c3cccs3)nc21 | 2.87%
CSc1nc(C)c(CCO)c(=O)[nH]1 | 7.81%
CCN1CCN(c2cc(C)c3cc(NC(=S)N(CC)CC)ccc3n2)CC1 | -43.9%
CC(C)[C@H](NC(=O)c1ccccc1)C(=O)Nc1ccc2c(c1)OCO2 | 6.91%
Cc1cc(C)c(OCCCCN2CCNCC2)c(C)c1.O=C(O)C(=O)O | 9.44%
O=C(Nc1ccc(N2CCCC(O)C2)cc1)c1snc2c(=O)[nH]cnc12 (stereo not drawn) | 12.3%
C=CCn1cccc(C(=O)Nc2cc(OC)c(OC)c(OC)c2)c1=O | 3.71%
Cc1ccc(NS(=O)(=O)c2ccc(OCC(=O)NCc3ccco3)cc2)cc1 | -20.7%
CC(=NCC1CCCO1)c1c(O)n(C2CCCCC2)c(=O)[nH]c1=O (stereo not drawn) | -9.77%
COc1ccc(Br)cc1CNC(=O)Cc1c(C(=O)O)[nH]c2ccc(Cl)cc12 | 27.2%
Cc1ccccc1Cn1c2ccccc2c2cnn(CC(=O)NCCCN3CCOCC3)c(=O)c21 | -18.6%
CC(C)CCNC(=O)C(NS(=O)(=O)c1ccc2c(c1)c(=O)n(C)c(=O)n2C)c1ccccc1 (stereo not drawn) | 13.2%
O=C(NC1CCCC1)C(=O)N(Cc1cccnc1)C(C(=O)NCc1ccco1)c1ccccc1F (stereo not drawn) | -3.41%
Cc1sc2nc(SCC(N)=O)n(-c3ccccc3)c(=O)c2c1C | 2.15%
CC(C)C(=O)Nc1c(-c2ccccc2Cl)c(=O)c2ccccc2n1C | 11.8%
Cc1ccccc1NC(=S)NC(=O)C1CCCCC1 | 12.2%
O=C(Cc1ccc(S(=O)(=O)N2CCOCC2)s1)Nc1ccc2c(c1)CCC2 | -15.7%
CC(=O)Nc1ccc2nc(SCC(=O)NCCOc3ccccc3)sc2c1 | -16.7%
CCNc1nc(NCC)n2c(SCC(=O)NCC3CCCCC3)nnc2n1 | 10.9%
COc1ccccc1-c1cc(C(=O)N2CCN(c3ccc(F)cc3)CC2)no1 | 0.108%
O=C(CCCN1C(=O)/C(=C/c2cccs2)SC1=S)Nc1cccnc1 | 13.2%

Structure (SMILES) | hERG current change (%, negative = inhibition) at 10uM
COc1cccc(OCC(=O)O)c1 | 4.45%
COc1ccccc1OCC(=O)NC1CCCc2ccccc21 (stereo not drawn) | 15.2%
COc1ccc(-n2ccnc2SCC(=O)NCc2ccc3c(c2)OCO3)cc1 | -7.81%
Brc1ccc(OCCCCCN2CCOCC2)cc1.O=C(O)C(=O)O | -63.8%
COc1ccc(Br)cc1CN1CCN(C(=O)c2ccc(OC)c(OC)c2)CC1.O=C(O)C(=O)O | -38.1%
O=C(NCCc1ccc(Cl)cc1)c1n[nH]c2ccccc12 | 16.7%
NC(=O)c1ccc(N2CCN(c3ccccc3O)CC2)c([N+](=O)[O-])c1 | -30.2%
CN(C)S(=O)(=O)c1ccc(N2CCCC2)c(C(=O)Nc2ccc(F)cc2F)c1 | -33.2%
CN(CC(=O)NCC1CCCCC1)CC(=O)Nc1ccccc1Br | -21.2%
O=C(Nc1c2c(nn1-c1cccc(Cl)c1)CS(=O)(=O)C2)c1cccs1 | -18.8%
CNNC(=S)Nc1ccc(Cl)cc1 | -15.1%
CC(C)(C)NS(=O)(=O)c1ccc(NC(=O)c2cc(-c3ccccc3)nc3ccccc23)cc1 | -5.14%
Cc1c(C(=O)NCCC2=CCCCC2)cccc1[N+](=O)[O-] | -1.5%
CCN(CC)S(=O)(=O)c1ccc(N2CCOCC2)c(NC(=O)c2cccc3c(=O)c(C)c(-c4ccccc4)oc23)c1 | -55%
Cc1ccc2c(c1)C(c1ccccc1)N(C(=O)c1ccccc1)CC(=O)N2 (stereo not drawn) | -7.17%
COc1ccc(C2SCC(=O)Nc3c2c(C)nn3C2CCOC(C)(C)C2)cc1OC (stereo not drawn) | 0.748%
O=C1CC(c2ccc(Cl)cc2)c2c(O)cc(O)cc2O1 (stereo not drawn) | 19.9%
COc1ccc(OC)c(NC(=O)c2cc3n(n2)C(C(F)(F)F)CC(c2ccc4c(c2)OCO4)N3)c1 (stereo not drawn) | 0.971%
NC(=O)c1ccc[n+](CC(=O)NCc2ccc(Cl)cc2)c1.[Cl-] | 8.9%
CN(Cc1ccccc1Br)C(=O)CN1C(=O)NC2(CCCCCC2)C1=O | -11.1%
CC(=O)c1ccc2c(c1)OCO2 | 16.1%

— article PMC4336329 (PLoS ONE, 2015)
